In PubChem BioAssay AID1466 (National Center for Advancing Translational Sciences (NCATS), 2008):
Several values for one entry are separate records, joined by “and”; a condition that tells them apart may be missing. Equal entries are not always repeated. Hit rate of the full screen: of about 200,000 compounds, about 10 (0.005%) were called active. This list was built around the results that the source calls inconclusive (neither active nor inactive); the mix of calls is not that of the screen. Calls come from the whole dose curve; as a rule, active = well fitted inhibition curve with a large enough effect; inconclusive = small, poorly fitted or top-dose-only effect, or effect the other way, or another doubt; inactive = no such curve, though single readings can be large or run the other way. A potency beside an inconclusive call is a rough fit, not a confirmed value.

target: Lysosomal alpha-glucosidase (Homo sapiens) (UniProt P10253); experiment: qHTS Assay for Inhibitors of Human alpha-Glucosidase as a Potential Chaperone Treatment of Pompe Disease; conditions: purified human GAA, 4-MU-alpha-glucoside fluorescence; activity change, negative = inhibition: at 76.9 µM (top of the series) unless noted;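 for activity change, negative = inhibition: plate controls were uninhibited enzyme wells for no effect and no-enzyme background for full effect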
From the text: NIH Chemical Genomics Center [NCGC] NIH Molecular Libraries Probe Production centers Network [MLPCN] MLPCN Grant: 1R03MH084841-01 Assay Submitter (PI): Wei Zheng NCGC Assay Overview: Alpha-glucosidase is responsible for hydrolysis of terminal, non-reducing 1,4-linked alpha-D-glucose residues with release of alpha-D-glucose. It is a lysosomal hydrolase that is required for the degradation of a small percentage (1-3%) of cellular glycogen in human. Deficiency of this enzyme results in glycogen-storage disease type II (GSDII), also referred to as Pompe disease, an autosomal recessive disorder. Structurally normal glycogen is accumulated in lysosomes and cytoplasm in affected patients, primarily in muscle tissues. Excessive glycogen storage within lysosomes may interrupt normal functioning of other organelles and leads to cellular injury. In turn, this leads to enlargement and dysfunction of the entire organ involved (eg, cardiomyopathy and muscle weakness). It has reported that the improper folding and trafficking of alpha-glucosidase resulting from the genetic mutations may account for a significant number of Pompe patients. […] We optimized this alpha-glucosidase assay in 1536-well plate format for identifying the novel small molecule inhibitors with the structures other than the sugar analogs in order to develop the new pharmacological chaperones.
NCGC Assay Protocol Summary: This is a fluorogenic enzyme assay with 4-methylumbelliferyl-alpha-D-[…] as the substrate and human alpha-glucosidase as the enzyme preparation. Upon the hydrolysis of this fluorogenic substrate, the resulting product, 1. 4-methyllumbelliferone, can be excited at 365 nm and emits at 440 nm which can be detected by a standard fluorescence plate reader. Data were normalized to the controls for basal activity (without enzyme) and 100% activity (with enzyme). In the AC50 values were determined from concentration-response data modeled with the standard Hill equation. Assay buffer: 50 mM citric acid (titrated with potassium phosphate to pH 5.0), 0.005% Tween-20, pH 5.0. (pH 5.0 is an optimal condition for this enzyme assay) 1536-well assay protocol for the human alpha-glucosidase: (1) Add 2 ul/well of enzyme (4 nM final) (2) Add 23 nL compounds in DMSO solution. The final titration was 0.7 nM to 77 uM. (3) Add 1 ul of substrate (400 uM final) (4) Incubate at room temperature for 20 min. (5) Add 2 ul stop solution (1M NaOH and 1M Glycine mixture, pH 10) (6) Detect the assay plate in a ViewLux plate reader (PerkinElmer) with Ex=365 nm and Em=440nm. Keywords: Alpha-glucosidase, Pompe Disease, pharmacological chaperone, chaperone therapy, high throughput screening, alpha-glucosidase inhibitor, MLSMR, MLSCN, NIH Roadmap, qHTS and NCGC
Potency is the fitted concentration of half-maximal effect; tags give direction and shape of the fitted curve.

Compound | Potency | activity change, negative = inhibition
CCN(CC)c1ccc(N=Cc2c(O)n(-c3ccc(OC)cc3)c(=O)[nH]c2=O)cc1 | inconclusive: 1.26 µM [inhibitor, full curve, poor fit] | –
CCOC(C(=O)OCCCN(CC)CC)(c1ccccc1)c1ccccc1 | – | inconclusive: 17.2% [activator]
O=P(O)(O)C12CC3CC(CC(C3)C1)C2 | inconclusive: 56.2 µM [inhibitor, single point] | –
C[N+]1(C)CCc2cc3c(cc2[C@H]1[C@@H]1OC(=O)c2c1ccc1c2OCO1)OCO3 | inconclusive: 3.16 µM [inhibitor, partial curve] | –
CCN(CC)c1ccc(CC2C(=O)N(C)C(=O)N(C)C2=O)cc1 | inconclusive: 12.6 µM [inhibitor, partial curve] | –
COCCNC(=O)c1c(N)n(CCC(C)C)c2nc3ccccc3nc12 | inconclusive: 31.6 µM [activator, partial curve] | –
CCOC(=O)c1c(C)n(C(C)C)c2ccc(OC(=O)c3ccc(N4C(=O)CCC4=O)cc3)cc12 | inconclusive: 56.2 µM [inhibitor, single point] | –
COCCNC(=O)c1c(NC(=O)c2ccco2)n(Cc2ccccc2)c2nc3ccccc3nc12 | inconclusive: 22.4 µM [activator, partial curve] | –
CCC(=O)N1CCN(CCN=Cc2c(O)n(C)c(=O)n(C)c2=O)CC1 | inconclusive: 50.1 µM [inhibitor, single point] | –
CCn1nc(-c2ccccc2)nc2c(=O)n(C)c(=O)nc1-2 | inactive | –
Cc1ccc(NP(=O)(Oc2ccccc2F)Oc2ccccc2F)cc1C | inconclusive: 28.2 µM [inhibitor, single point] | –
CN(C(=O)Oc1ccc(Cl)c2cccnc12)c1ccccc1 | – | inconclusive: -16% [inhibitor]
CN1/C(=C\C=Nc2ccccc2)C(C)(C)c2ccccc21 | inconclusive: 56.2 µM [inhibitor, single point] | –
O=c1c2ccccc2nc(-c2ccccc2)n1-c1cccc(O)c1 | inconclusive: 2 µM [inhibitor, full curve, poor fit] | –
CCOC(=O)C1CCN(/C=C2\C(=O)NC(=S)N(CC)C2=O)CC1 | inconclusive: 50.1 µM [inhibitor, single point] | –
CCOC(=O)c1sc2ccccc2c1NC(=O)c1coc2ccccc2c1=O | inconclusive: 17.8 µM [activator, partial curve] | –
CN1CC=C2C(C#N)=C(N)C(C#N)(C#N)C(c3ccncc3)C2C1 (stereo not drawn) | inconclusive: 50.1 µM [activator, single point] | –
O=P(NS(=O)(=O)c1ccc(Cl)cc1)(Oc1ccccc1)Oc1ccccc1 | inconclusive: 14.1 µM [inhibitor, partial curve, poor fit] | –
O=C(c1cccn2c(=O)c3cc(Cl)ccc3nc12)N1CCC2(CC1)OCCO2 | inconclusive: 31.6 µM [activator, partial curve] | –
N#CCCn1cc(C(=O)NCc2ccccc2)c(-c2ccc3c(c2)OCCO3)n1 | inconclusive: 56.2 µM [inhibitor, single point] | –
Cc1cc(N2C(=O)C3CCCN3C2c2ccc(Cl)c(Cl)c2)no1 (stereo not drawn) | inconclusive: 28.2 µM [activator, partial curve] | –

Compound | Potency | activity change, negative = inhibition
O=C(CNC(=O)c1ccc(Cl)cc1)OCC(=O)c1ccc2c(c1)OCCO2 | inconclusive: 28.2 µM [inhibitor, partial curve] | –
O=C(CCCN1CCC2(CC1)C(=O)NCN2c1ccccc1)c1ccc(F)cc1 | – | inconclusive: 3.99% [inhibitor] [at 15.4 µM]
O=C1/C(=C/c2ccc([N+](=O)[O-])cc2)N2CCC1CC2 | inconclusive: 11.2 µM [inhibitor, single point] | –
O=C(Nc1ccccc1Cl)OC1CN2CCC1CC2 (stereo not drawn) | inconclusive: 1.41 µM [inhibitor, full curve] | –
CN(C)CCNC(=O)c1cccn(Cc2cc(C(F)(F)F)cc(C(F)(F)F)c2)c1=O | inconclusive: 0.891 µM [inhibitor, full curve, poor fit] | –
O=C(c1ccc2c(c1)ncn2C1CCCCCC1)N1CCC2(CC1)OCCO2 | inconclusive: 50.1 µM [inhibitor, single point] | –
COC(=O)C1=C(C)N(C)C(=O)NC1c1cc(Cl)c(O)c(OC)c1 (stereo not drawn) | inconclusive: 7.94 µM [inhibitor, single point] | –
N#CC1=C(N)Oc2cc(O)ccc2C1c1ccc2c(c1)OCO2 (stereo not drawn) | – | inconclusive: 20.8% [activator]
CCCCCCN1CCN(c2ccc(Cl)cc2)CC1 | inconclusive: 56.2 µM [inhibitor, single point] | –
Cc1ncc(CN2CCCC(C(=O)c3ccc(C(C)(C)C)cc3)C2)s1 (stereo not drawn) | inconclusive: 11.2 µM [inhibitor, single point] | –
COc1cc(-n2c(=S)[nH]c3ccc(C)cc3c2=O)c(Cl)cc1Cl | – | inconclusive: -15% [inhibitor]
COc1ccc(-c2cc(=NCCCCCC(=O)O)c3cc(C)ccc3o2)cc1 | inconclusive: 31.6 µM [activator, partial curve] | –
CCCCn1c(N)c(C(=O)NCCN2CCOCC2)c2nc3ccccc3nc21 | inconclusive: 28.2 µM [activator, single point] | –
CN1C[C@H](CNC(=O)OCc2ccccc2)C[C@@H]2c3cccc4c3c(cn4C)C[C@H]21 | inconclusive: 56.2 µM [inhibitor, single point] | –
Cc1ccc(P(=S)(c2ccc(C)o2)N2CCOCC2)o1 | – | inconclusive: -17.6% [inhibitor]
CCCCCn1c(NC(=O)c2ccco2)c(C(=O)OCC)c2nc3ccccc3nc21 | inconclusive: 25.1 µM [activator, partial curve] | –
O=C1CCCN1C(=O)c1cncc(Br)c1 | inactive | –
CN(C)C(=O)Oc1ccc([N+](=O)[O-])cc1 | inconclusive: 56.2 µM [inhibitor, single point] | –
CSCCC(=O)Nc1cc(S(=O)(=O)N2CCOCC2)ccc1N1CCN(C)CC1 | inconclusive: 44.7 µM [inhibitor, single point] | –
COC(=O)c1ccc(NC(=O)CSc2nc3ccc(N4C(=O)C5C6C=CC(C6)C5C4=O)cc3s2)cc1 (stereo not drawn) | inconclusive: 6.31 µM [inhibitor, full curve, poor fit] | –
Clc1ccc(COC(Cn2ccnc2)c2ccc(Cl)cc2Cl)cc1 (stereo not drawn) | inconclusive: 56.2 µM [inhibitor, single point] | –

Compound | Potency | activity change, negative = inhibition
c1ccc(CCn2nnnc2CN2CCC(n3nnc4ccccc43)CC2)cc1 | inconclusive: 50.1 µM [inhibitor, single point] | –
CCOC(=O)c1c(N)n(Cc2ccco2)c2nc3ccccc3nc12 | inconclusive: 39.8 µM [activator, partial curve] | –
CCC(C)NC(=O)c1c(N)n(CCCOC)c2nc3ccccc3nc12 (stereo not drawn) | inconclusive: 28.2 µM [activator, partial curve] | –
CCc1cc2c(s1)NC(=O)CN=C2c1cccs1 | inconclusive: 35.5 µM [inhibitor, single point] | –
CC(=O)N1CCC2(CC1)CC(=O)c1cc(OCC(=O)N3CCN(C)CC3)ccc1O2 | inconclusive: 31.6 µM [activator, single point] | –
CCOC(=O)c1c(C)n(CCN2CCN(C)CC2)c2ccc(OC)cc12 | inactive | –
CCn1ncc(-c2ccnc3cc(C(=O)O)nn23)c1C | inconclusive: 39.8 µM [activator, partial curve] | –
CCCCCCCC(=O)NC(Oc1ccccc1[N+](=O)[O-])C(Cl)(Cl)Cl (stereo not drawn) | inconclusive: 12.6 µM [inhibitor, single point] | –
CCCCn1c(N)c(C(=O)OCC2CCCO2)c2nc3ccccc3nc21 (stereo not drawn) | inconclusive: 35.5 µM [activator, partial curve] | –
CN1CCN(c2cn[nH]c(=O)c2Cl)CC1 | – | inconclusive: 8.79% [activator]
Nc1ccncc1Cl | inconclusive: 10 µM [inhibitor, full curve, poor fit] | –
CC1CCC(C(C)C)C(OC(=O)COC(=O)c2ccccc2N)C1 (stereo not drawn) | inconclusive: 20 µM [activator, partial curve, poor fit] | –
CC(C)Nc1nc(Cl)nc(NC(C)C)n1 | inconclusive: 39.8 µM [inhibitor, single point] | –
CN1CC2([N+](=O)[O-])CC=C(Cl)C([N+](=O)[O-])(C1)C2 (stereo not drawn) | inconclusive: 1.58 µM [inhibitor, full curve, poor fit] | –
O=C(c1ccco1)c1cn(Cc2ccccc2)c2ccccc12 | inconclusive: 44.7 µM [inhibitor, partial curve] | –
CN1C(=O)C(Cc2ccc3c(c2)OCO3)C(=O)N(C)C1=O | inactive | –
O=C(c1cc(F)ccc1F)C1CCCN(CCCc2ccccc2)C1 (stereo not drawn) | inconclusive: 39.8 µM [inhibitor, single point] | –
CCCNC(=O)c1c(N)n(Cc2ccco2)c2nc3ccccc3nc12 | inconclusive: 28.2 µM [activator, partial curve] | –
Nc1ccccc1C(=O)OCC(=O)Nc1ccc(Br)cc1F | inconclusive: 39.8 µM [activator, single point] | –
CCN1CCN(c2ccc(N)c(C)c2)CC1 | inconclusive: 50.1 µM [inhibitor, single point] | –
CC[C@@H](CO)NC(=O)[C@@H]1C=C2c3cccc4c3c(cn4C)C[C@H]2N(C)C1 | inconclusive: 35.5 µM [activator, partial curve] and inconclusive: 50.1 µM [activator, single point] | –
